Results reported in patent publication US7083949.

Columns and labels:
Test in all cases: cell-based or functional assay
[1] = target: recombinant human IL-1 (human)
[2] = target: human IL-4 (human) (UniProt P05112)
[3] = target: human IL-13 (human) (UniProt P35225)
UniProt P35225, sequence (P35225 35-146 limits assumed): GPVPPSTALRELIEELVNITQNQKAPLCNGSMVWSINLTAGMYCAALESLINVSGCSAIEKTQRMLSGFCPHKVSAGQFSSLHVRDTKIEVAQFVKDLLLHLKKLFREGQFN

UniProt P05112, sequence (P05112 25-153 limits assumed): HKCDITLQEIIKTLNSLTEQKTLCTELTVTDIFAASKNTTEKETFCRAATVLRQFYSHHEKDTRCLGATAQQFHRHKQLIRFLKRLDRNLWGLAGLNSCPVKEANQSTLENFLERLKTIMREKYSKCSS

Row | Binder | IL-1-dependent production of IL-6 by MRC5 cells; fold against IL1RI.Fc (fold better than IL1RI.Fc) [1] | IL-1-dependent production of IL-6 by MRC5 cells; highest IL-1 concentration blocked by 10 nM Trap [1] | TF1 bioassay; activity against Trap 943 (fold better than Trap 943) [2] | TF1 bioassay; activity against Trap 943 (fold better than Trap 943) [3]
1 | IL1 Trap 1SC569 (Fc fusion) SERCDDWGLDTMRQIQVFEDEPARIKCPLFEHFLKFNYSTAHSAGLTLIWYWTRQDRDLEEPINFRLPENRISKEKDVLWFRPTLLNDTGNYTCMLRNTTYCSKVAFPLEVVQKDSCFNSPMKLPVHKLYIEYGIQRITCPNVDGYFPSSVKPTITWYMGCYKIQNFNNVIPEGMNLSFLIALISNNGNYTCVVTYPENGRTFHLTRTLTVKVVGSPKNAVPPVIHSPNDHVVYEKEPGEELLIPCTVYFSFLMDSRNEVWWTIDGKKPDDITIDVTINESISHSRTEDETRTQILSIKKVTSEDLKRSYVCHARSAKGEVAKAAKVKQKVPAPRYTVSGGAPMLSEADKCKEREEKIILVSSANEIDVRPCPLNPNEHKGTITWYKDDSKTPVSTEQASRIHQHKEKLWFVPAKVEDSGHYYCVVRNSSYCLRIKISAKFVENEPNLCYNAQAIFKQKLPVAGDGGLVCPYMEFFKNENNELPKLQWYKDCKPLLLDNIHFSGVKDRLIVMNVAEKHRGNYTCHASYTYLGKQYPITRVIEFITLEENKPTRPVIVSPANETMEVDLGSQIQLICNVTGQLSDIAYWKWNGSVIDEDDPVLGEDYYSVENPANKRRSTLITVLNISEIESRFYKHPFTCFAKNTHGIDAAYIQLIYPVTNSG[not shown - human IgG1 Fc] | 100 | 3 nM |  | 
2 | IL-4/IL-13 Trap 1126 (Fc fusion) GGGGAAPTETQPPVTNLSVSVENLSTVIWTWNPPEGASSNCSLWYFSHFGDKQDKKIAPETRRSIEVPLNERICLQVGSQCSTNESEKPSILVEKCISPPEGDPESAVTELQCIWHNLSYMKCSWLPGRNTSPDTNYTLYYWHRSLEKIHQCENIFREGQYFGCSFDLTKVKDSSFEQHSVQIMVKDNAGKIKPSFNIVPLTSRVKPDPPHIKNLSFHNDDLYVQWENPQNFISRCLFYEVEVNNSQTETHNVFYVQEAKCENPEFERNVENTSCFMVPGVLPDTLNTVRIRVKTNKLCYEDDKLWSNWSQEMSIGNMKVLQGKKRNSTEPTCVSDYMSISTCEWKMNGPTNCSTELRLLYQLVFLLSEAHTCIPENNGGAGCVCHLLMDDVVSADNYTLDLWAGQQLLWKGSFKPSEHVKPRAPGNLTVHTNVSDTLLLTWSNPYPPDNYLYNHLTYAVNIWSENDPADFRIYNVTYLEPSLRIAASTLKSGISYRARVRAWAQSYNTTWSEWSPSTKWHNSYREPFEQSG[not shown - human IgG1 Fc] |  |  | 2 to 3 | 2 to 3
3 | IL-4/IL-13 Trap 1130 (Fc fusion) GGGGAAPTETQPPVTNLSVSVENLATVIWTWNPPEGASSNCSLWYFSHFGDKQDKKIAPETRRSIEVPLNERICLQVGSQCSTNESEKPSILVEKCISPPEGDPESAVTELQCIWHNLSYMKCSWLPGRNTSPDTNYTLYYWHRSLEKIHQCENIFREGQYFGCSFDLTKVKDSSFEQHSVQIMVKDNAGKIKPSFNIVPLTSRVKPDPPHIKNLSFHNDDLYVQWENPQNFISRCLFYEVEVNNSQTETHNVFYVQEAKCENPEFERNVENTSCFMVPGVLPDTLNTVRIRVKTNKLCYEDDKLWSNWSQEMSIGNMKVLQGKKRNSTEPTCVSDYMSISTCEWKMNGPTNCSTELRLLYQLVFLLSEAHTCIPENNGGAGCVCHLLMDDVVSADNYTLDLWAGQQLLWKGSFKPSEHVKPRAPGNLTVHTNVSDTLLLTWSNPYPPDNYLYNHLTYAVNIWSENDPADFRIYNVTYLEPSLRIAASTLKSGISYRARVRAWAQSYNTTWSEWSPSTKWHNSYREPFEQSG[not shown - human IgG1 Fc] |  |  | 2 to 3 | 2 to 3
